Experimental data reported in the supplement of paper PMC8728848.
The other results are listed elsewhere or left out.

Key:
Experiment in all cases: glycan array binding signal (z-score within array); higher = stronger binding
Conditions in all cases: glycan notation: IUPAC condensed, linker removed
[1] = biological target: Gal(b1-3)GalNAc(b1-3)Gal(a1-4)Gal(b1-4)Glc
How it was run: (§1)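 The Consortium for Functional Glycomics database supplied 3228 glycan arrays, of which those lacking an available protein sequence were dropped. The binding signal, a within-array Z-score, was averaged across arrays of the same protein sequence and across linkers. Negative scores can be read as non-binding.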

[2] = biological target: Gal(b1-3)GalNAc(b1-4)Gal(b1-4)Glc
How it was run: as §1

[3] = biological target: Gal(b1-3)GalNAc(b1-4)[Neu5Ac(a2-3)]Gal(b1-4)Glc
How it was run: as §1

[4] = biological target: Gal(b1-3)GlcNAc
How it was run: as §1

[5] = biological target: Gal(b1-3)GlcNAc(a1-3)Gal(b1-4)GlcNAc
How it was run: as §1

[6] = biological target: Gal(b1-3)GlcNAc(a1-6)Gal(b1-4)GlcNAc
How it was run: as §1

[7] = biological target: Gal(b1-3)GlcNAc(b1-2)Man
How it was run: as §1

[8] = biological target: Gal(b1-3)GlcNAc(b1-2)Man(a1-3)[Gal(b1-3)GlcNAc(b1-2)Man(a1-6)]Man(b1-4)GlcNAc(b1-4)GlcNAc
How it was run: as §1

[9] = biological target: Gal(b1-3)GlcNAc(b1-2)Man(a1-3)[Gal(b1-3)GlcNAc(b1-2)Man(a1-6)]Man(b1-4)GlcNAc(b1-4)[Fuc(a1-6)]GlcNAc
How it was run: as §1

[10] = biological target: Gal(b1-3)GlcNAc(b1-2)Man(a1-3)[GlcNAc(b1-4)][Gal(b1-3)GlcNAc(b1-2)Man(a1-6)]Man(b1-4)GlcNAc(b1-4)GlcNAc
How it was run: as §1

[11] = biological target: Gal(b1-3)GlcNAc(b1-2)[Gal(b1-3)GlcNAc(b1-6)]Man(a1-6)[Gal(b1-3)GlcNAc(b1-2)Man(a1-3)]Man(b1-4)GlcNAc(b1-4)GlcNAc
How it was run: as §1

[12] = biological target: Gal(b1-3)GlcNAc(b1-3)Gal(b1-3)GlcNAc
How it was run: as §1

[13] = biological target: Gal(b1-3)GlcNAc(b1-3)Gal(b1-4)Glc
How it was run: as §1

[14] = biological target: Gal(b1-3)GlcNAc(b1-3)Gal(b1-4)GlcNAc
How it was run: as §1

[15] = biological target: Gal(b1-3)GlcNAc(b1-3)Gal(b1-4)GlcNAc(b1-2)Man(a1-3)[Gal(b1-3)GlcNAc(b1-3)Gal(b1-4)GlcNAc(b1-2)Man(a1-6)]Man(b1-4)GlcNAc(b1-4)GlcNAc
How it was run: as §1

[16] = biological target: Gal(b1-3)GlcNAc(b1-3)Gal(b1-4)GlcNAc(b1-2)[Gal(b1-3)GlcNAc(b1-3)Gal(b1-4)GlcNAc(b1-6)]Man(a1-6)[Gal(b1-3)GlcNAc(b1-3)Gal(b1-4)GlcNAc(b1-2)Man(a1-3)]Man(b1-4)GlcNAc(b1-4)[Fuc(a1-6)]GlcNAc
How it was run: as §1

[17] = biological target: Gal(b1-3)GlcNAc(b1-3)Gal(b1-4)GlcNAc(b1-3)Gal(b1-4)GlcNAc(b1-2)[Gal(b1-3)GlcNAc(b1-3)Gal(b1-4)GlcNAc(b1-3)Gal(b1-4)GlcNAc(b1-6)]Man(a1-6)[Gal(b1-3)GlcNAc(b1-3)Gal(b1-4)GlcNAc(b1-3)Gal(b1-4)GlcNAc(b1-2)Man(a1-3)]Man(b1-4)GlcNAc(b1-4)[Fuc(a1-6)]GlcNAc
How it was run: as §1

[18] = biological target: Gal(b1-3)GlcNAc(b1-3)Gal(b1-4)GlcNAc(b1-6)[Gal(b1-3)GlcNAc(b1-3)]Gal(b1-4)Glc
How it was run: as §1

[19] = biological target: Gal(b1-3)GlcNAc(b1-3)Gal(b1-4)[Fuc(a1-3)]GlcNAc
How it was run: as §1

[20] = biological target: Gal(b1-3)GlcNAc(b1-3)Gal(b1-4)[Fuc(a1-3)]GlcNAc(b1-6)[Gal(b1-3)GlcNAc(b1-3)]Gal(b1-4)Glc
How it was run: as §1

[21] = biological target: Gal(b1-3)GlcNAc(b1-3)GalNAc
How it was run: as §1

[22] = biological target: Gal(b1-3)GlcNAc(b1-6)Gal(b1-4)GlcNAc
How it was run: as §1

[23] = biological target: Gal(b1-3)GlcNAc(b1-6)GalNAc
How it was run: as §1

[24] = biological target: Gal(b1-3)GlcNAc(b1-6)[Gal(b1-3)]GalNAc
How it was run: as §1

[25] = biological target: Gal(b1-3)GlcNAc6S
How it was run: as §1

[26] = biological target: Gal(b1-3)[Fuc(a1-4)]GlcNAc
How it was run: as §1

[27] = biological target: Gal(b1-3)[Fuc(a1-4)]GlcNAc(b1-2)Man
How it was run: as §1

[28] = biological target: Gal(b1-3)[Fuc(a1-4)]GlcNAc(b1-2)Man(a1-3)[Gal(b1-3)[Fuc(a1-4)]GlcNAc(b1-2)Man(a1-6)]Man(b1-4)GlcNAc(b1-4)[Fuc(a1-6)]GlcNAc
How it was run: as §1

[29] = biological target: Gal(b1-3)[Fuc(a1-4)]GlcNAc(b1-3)Gal(b1-3)[Fuc(a1-4)]GlcNAc
How it was run: as §1

[30] = biological target: Gal(b1-3)[Fuc(a1-4)]GlcNAc(b1-3)Gal(b1-4)[Fuc(a1-3)]GlcNAc
How it was run: as §1

[31] = biological target: Gal(b1-3)[Fuc(a1-4)]GlcNAc(b1-6)GalNAc
How it was run: as §1

[32] = biological target: Gal(b1-3)[GlcNAc(b1-6)]GalNAc
How it was run: as §1

[33] = biological target: Gal(b1-3)[Neu5Ac(a2-6)]GalNAc
How it was run: as §1

[34] = biological target: Gal(b1-3)[Neu5Ac(a2-6)]GlcNAc(b1-4)Gal(b1-4)Glc
How it was run: as §1

[35] = biological target: Gal(b1-3)[Neu5Ac(b2-6)]GalNAc
How it was run: as §1

[36] = biological target: Gal(b1-4)Gal
How it was run: as §1

[37] = biological target: Gal(b1-4)GalNAc(a1-3)[Fuc(a1-2)]Gal(b1-4)GlcNAc
How it was run: as §1

[38] = biological target: Gal(b1-4)GalNAc(b1-3)[Fuc(a1-2)]Gal(b1-4)GlcNAc
How it was run: as §1

B1: PX9961T-pdi-555-33-555 (Parabacteroides distasonis) (protein)
chain: FDEETAFQSPTLVYVNTVASLYNNMFKIMGNDRHVYDLNTFSSDEAMLPCRIGDWEDGGLWQNIFLHRWGTMNDLTKNSWDFLYEQIGKCNQSVDKLQAFAEEQPDVEYFKVYLEEVRAVRAFFYYELLDLFARVPLVTSSTTPMSEVKQSERSVVFNFVRSELEEALPYLSDNRSNQKGEYYGRITKPVAYMILAKLALNAEVYADDNWTDGNRPAGKNIKFTVDGKEMNAWEATIAYVDKLEALGYKLQGNFSENFAVANETSVENIFTVPMDPVAYPDAKDYNLVRTRHYDHATAYGQSGWNGSCATVKAMNVFKFGTADEDPRCKLTYFTGEVTGPDGKTIYTEWDGQKVPLKYEPNAPKVYMDASDGLLVKTAGARMAKYEFDQNAQDGGNLHGNDCVIFRFADALLMKAEAKIRLGQNGDDEVNQVRNRVGAKPLQNVTLDTLLDERMLELAWEGVRRQDLIRFGKFTEATVDRYVGVKHFASSLDYQEDKTGYTTVFSIYADILSLNPNLTQNPGY
glycan array binding signal (z-score) [1]: -0.576
glycan array binding signal (z-score) [2]: 0.247
glycan array binding signal (z-score) [3]: -0.841
glycan array binding signal (z-score) [4]: -0.225
glycan array binding signal (z-score) [5]: 0.119
glycan array binding signal (z-score) [6]: -0.403
glycan array binding signal (z-score) [7]: 0.661
glycan array binding signal (z-score) [8]: -0.248
glycan array binding signal (z-score) [9]: 0.13
glycan array binding signal (z-score) [10]: 0.011
glycan array binding signal (z-score) [11]: 0.534
glycan array binding signal (z-score) [12]: -0.315
glycan array binding signal (z-score) [13]: 0.245
glycan array binding signal (z-score) [14]: -0.164
glycan array binding signal (z-score) [15]: 0.42
glycan array binding signal (z-score) [16]: -0.542
glycan array binding signal (z-score) [17]: -0.499
glycan array binding signal (z-score) [18]: 0.044
glycan array binding signal (z-score) [19]: -0.138
glycan array binding signal (z-score) [20]: -0.354
glycan array binding signal (z-score) [21]: -0.515
glycan array binding signal (z-score) [22]: 0.429
glycan array binding signal (z-score) [23]: -0.018
glycan array binding signal (z-score) [24]: -0.08
glycan array binding signal (z-score) [25]: 0.453
glycan array binding signal (z-score) [26]: 0.33
glycan array binding signal (z-score) [27]: 0.763
glycan array binding signal (z-score) [28]: -0.151
glycan array binding signal (z-score) [29]: 0.408
glycan array binding signal (z-score) [30]: -0.053
glycan array binding signal (z-score) [31]: 0.004
glycan array binding signal (z-score) [32]: -0.45
glycan array binding signal (z-score) [33]: 0.315
glycan array binding signal (z-score) [34]: -0.231
glycan array binding signal (z-score) [35]: -0.426
glycan array binding signal (z-score) [36]: 0.143
glycan array binding signal (z-score) [37]: -0.527
glycan array binding signal (z-score) [38]: -0.157
